Data reported in US20110178024A1 (BEN GURION UNIVERSITY OF THE NEGEV RESEARCH AND DEVELOPMENT …, published 2011).

Legend:
HLA-DR15 (DRB1*1501) = HLA-DR15 (DRB1*1501) (human); assay: cell-based or functional assay
HLA-DR4 (DRB1*0401) = HLA-DR4 (DRB1*0401) (human); assay: cell-based or functional assay

- T-cell proliferation of splenocytes of Aβ-immunized DR15 mice, SI at 10 µg/ml (HLA-DR15 (DRB1*1501)): 4.5 SI
- T-cell proliferation of splenocytes of Aβ-immunized DR4 mice, SI at 10 µg/ml (HLA-DR4 (DRB1*0401)): 1.2 SI
B1: Aβ[…] peptide (peptide)
peptide: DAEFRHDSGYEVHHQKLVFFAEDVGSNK
